This note sets out measurements from ChEMBL document CHEMBL1201862, “PubChem BioAssay data set” (2004).

The term GI50 denotes the concentration at which growth is held to half of that of the control.

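The compound was tested at five concentrations on cells cultured in 96-well plates, with a 48-hour exposure period. Here, GI50 denotes the concentration required for 50% inhibition of growth.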 Calls of active or inactive are those of the source. Rule as the data show it: active = GI50 up to about 1.1 µM and inactive = higher.

This test has as its system NCI-H322M. Description: DTP human tumour cell line panel, 48 h.
`CCOC(=O)C(NS(=O)(=O)c1ccccc1)(C(F)(F)F)P(=O)(OCC(C)C)OCC(C)C` (configuration not stated): the GI50 is inactive: > 100 µM. Take `CCCCN1CSC(=S)N(Cc2ccccc2)C1`: the GI50 was inactive: > 100 µM. For the compound `N#Cc1c(N2CCN(c3ccc([N+](=O)[O-])cc3)CC2)[n+]([O-])c2ccc(Cl)cc2[n+]1[O-]`, the GI50 was inactive: 11.7 µM. Then `O=C1Oc2ccccc2N/C1=C/C(=O)c1ccc(Cl)cc1`, with inactive: > 100 µM; and `O=C(O)C(CCc1ccccn1)c1ccccc1` (configuration not stated), with inactive: > 100 µM; and `CCOP(=O)(CCC(O)CNc1nc(N)nc(Cl)c1/N=N/c1ccc(Cl)cc1)OCC` (configuration not stated), with inactive: 15 µM. For `COC(=O)C(Cc1c[nH]c2ccccc12)NP(=O)(O)OCC1OC(n2ccc(N)nc2=O)C(O)C1O` (configuration not stated), the GI50 is inactive: > 100 µM.

In the case of `Cc1ccc(/C=C2\Cc3c(C)cc(C)cc3C2=O)c(C(=O)O)c1`, the GI50 was inactive: 50.2 µM. Then `O=c1[nH]nc(Cc2ccc(Cl)cc2)n1CCO`, with inactive: > 100 µM. In the case of `CN(C)CC(CO)(CN(C)C)CN(C)C` it was inactive: > 100 µM. Then `CCCn1c(C23CC4CC(CC(C4)C2)C3)nc2ccc(Cl)cc2c1=O`, with inactive: 33.1 µM; and `CCOC(=O)C1(C(=O)OCC)CCCN1C(=O)[C@H](CNC(=O)OC(C)(C)C)NC(=O)OCc1ccccc1`, with inactive: > 100 µM; and `Nc1nc(=O)c(/N=N/c2ccc([As](=O)(O)O)cc2)c(N)[nH]1`, with inactive: > 100 µM. Turning to `O=c1[nH]c(-c2ccc([N+](=O)[O-])cc2)nc2ccc(Cl)cc12`, the GI50 was inactive: 97.3 µM. As for `CCOC(=O)C1C(O)CC2c3ccccc3-c3ccccc3C21` (configuration not stated), the GI50 was inactive: 32.6 µM. Then `CC1CCc2c(sc3ncnc(N/N=C/c4ccc(Cl)cc4)c23)C1` (configuration not stated), with inactive: 39.4 µM; and `Cc1cc(Cl)ccc1N1C(=O)C(=O)C(c2nc3ccccc3o2)C(=O)C1=O`, with inactive: > 100 µM. Then `C/C(=N\NC(=O)c1ccncc1)c1cccc(C(F)(F)F)c1`, with inactive: > 10 µM; and `CSc1nc2c(ncn2C2OC(CO)C(O)C(O)C2O)c(=O)n1C` (configuration not stated), with inactive: > 100 µM; and `O=c1c2cccc3cccc(c4n1CCN=4)c32`, with inactive: 91 µM.

With `C/C=C1\CCC2c3[nH]c4ccccc4c3CCN2C1` (configuration not stated), the GI50 is inactive: > 100 µM. In the case of `COc1ccc(/C=C/c2cc(OC)c(OC)c(OC)c2)cc1OC` it was inactive: 37.8 µM; in that of `CC(=O)OC1=C2CC3(C)OC(=O)CC(C)(C)C3=CC=C2C=C(C(C)C)C1=O` (configuration not stated), inactive: 1.71 µM; in that of `N#Cc1c(O)c(/N=N/c2ccc(Cl)cc2)c(=O)n2c1[nH]c1ccccc12`, inactive: 59.3 µM. Then `CSc1nc2c(c(O)c(C)c(=O)n2C2OCC(OC(C)=O)C(OC(C)=O)C2OC(C)=O)c(=O)n1C` (configuration not stated), with inactive: > 100 µM.

In the case of `CC(C)(C)c1cc(C(=O)/C=C/c2ccc(O)c(O)c2O)cc(C(C)(C)C)c1O`, the GI50 is inactive: 3.49 µM.

As to `CC1=C(C(=O)Nc2ccccc2)C(c2ccccc2Cl)C(C(=O)Nc2ccccc2)=C(C)N1`, the GI50 is inactive: 56.1 µM. `O=c1[nH]c(-c2ccccc2)nc2cc([N+](=O)[O-])c(/C(Cl)=C/c3ccccc3)cc12`: the GI50 was inactive: 49.5 µM.

On to `O=CN/C=C\c1cc(O)ccc1O`, for which the GI50 was inactive: > 100 µM. Regarding `COc1ccc(N2C(=O)C3c4[nH]c5ccc(C)cc5c4C4CCC(c5ccccc5)CC4C3C2=O)cc1` (configuration not stated), the GI50 was inactive: > 100 µM. `Oc1cccc2c(Cl)ccnc12`: the GI50 was inactive: 19.8 µM. Take `COc1ccc(OC)c(C(=O)c2cccc(C(=O)c3cc(OC)ccc3OC)n2)c1`: the GI50 is inactive: > 100 µM. Then `COC(OC)[C@@H]1OC[C@@H](O)[C@@H]1n1cnc2c(N)ncnc21`, with inactive: > 100 µM. Turning to `CCCC1(N)CC(OC)OC(C)C1O` (configuration not stated), the GI50 was inactive: > 100 µM. On to `Clc1ccc(C2C3COc4ccccc4C3=NN2c2ccccc2)cc1` (configuration not stated), for which the GI50 was inactive: > 100 µM. Then `COC(=O)C1=C(O)c2cc(-c3ccccc3)c(-c3ccccc3)c(C#N)c2NC(=O)C1`, with inactive: > 100 µM; and `O=c1n(CC2CS2)c2ccccc2n1CC1CS1` (configuration not stated), with inactive: > 100 µM.

In the case of `COc1ccc(Nc2nc(N)c(C(=O)c3c[nH]c4ccccc34)s2)cc1`, the GI50 was inactive: 1.91 µM. On to `Sc1nn2c(COc3cc(Cl)c(OCc4nnc5sc(S)nn45)cc3Cl)nnc2s1`, for which the GI50 is inactive: > 100 µM. As to `COc1cc2c(cc1OC)C1(c3ccccc3)CN(C2)Cc2cc(OC)c(OC)cc21`, the GI50 is inactive: 50.2 µM. Consider `CCOC(=O)C(Cl)(NC(=O)OCc1ccccc1)C(F)(F)F` (configuration not stated), for which the GI50 was inactive: > 100 µM. Then `C/C(=C/c1c(C)[nH]c(=O)[nH]c1=O)C(=O)O`, with inactive: > 1370 µM; and `CCC(C)C1=C(O)[N+]2([O-])Oc3ccc(-c4c(O)c(O)c(-c5ccc(O)cc5)c(OC(C)=O)c4OC(C)=O)cc3OC2(C(C)CC)C(=O)N1O` (configuration not stated), with inactive: > 50 µM; and `O=C1NC2CCC(C2)C1c1ccccc1` (configuration not stated), with inactive: > 100 µM. In the case of `Cc1cc(=O)n2nc(CCl)sc2n1` it was inactive: 17.1 µM; in that of `COc1cccc(C2SC(=N)Nc3c2c(C)nn3C(=O)Cc2ccccc2)c1` (configuration not stated), inactive: > 100 µM.

`CC(C)(C)[Si](C)(C)OCC1OC(n2cnc3c(NC(=O)c4ccccc4)ncnc32)CC1O` (configuration not stated): the GI50 is inactive: 47.1 µM. In the case of `CN1C/C(=C\c2ccccc2[N+](=O)[O-])C(=O)/C(=C/c2ccccc2[N+](=O)[O-])C1` it was inactive: 2 µM. `COc1ccc2nc(C(=O)c3ccccc3)c(C)cc2c1`: the GI50 is inactive: 24.6 µM. On to `CN(NC(=O)c1cccs1)C1=NCCCCN1`, for which the GI50 is inactive: > 100 µM. For the compound `Cc1c(N)nc(C2CC(=O)N2CC(N)C(N)=O)nc1C(=O)NC(C(=O)NC(C)C(O)C(C)C(=O)NC(C(=O)NCCc1nc(-c2nc(C(=O)NCCNCC(C)O)cs2)cs1)C(C)O)C(OC1OC(CO)C(O)C(O)C1OC1OC(CO)C(O)C(OC(N)=O)C1O)c1c[nH]cn1` (configuration not stated), the GI50 was inactive: 66.7 µM. On to `Cc1cc(C)nc(NS(=O)(=O)c2ccc(Nc3c4ccccc4nc4c(C(=O)NCCN(C)C)cccc34)cc2)n1`, for which the GI50 was inactive: 4.27 µM. Turning to `O=C1C(Br)=CC2(C=C1Br)CCNC1=C2C(=O)c2[nH]cnc2C1=O`, the GI50 was inactive: 16.3 µM. Then `CC[C@]12C=CCN3CC[C@@]4(c5ccc(OC)cc5N(C)[C@H]4[C@@](O)(C(=O)OC)[C@@H]1OC(C)=O)[C@@H]32`, with inactive: > 200 µM; and `N#CC(/C(CCCC(=O)Nc1cccc([N+](=O)[O-])c1)=N/NC(=O)c1cc2ccccc2cc1O)c1ccccc1` (configuration not stated), with inactive: 29.7 µM; and `C=CC[C@]1(C2=NC(C)(C)CO2)c2ccccc2-c2ccccc2[C@H]1C(C)=O`, with inactive: 11.4 µM. Then `CC1(C)[C@@H]2C[C@H]1C(Cc1ccc(C[C@H]3c4cc(-c5ccccn5)ncc4[C@H]4C[C@@H]3C4(C)C)cc1)c1cc(-c3ccccn3)ncc12` (some centres not stated), with inactive: 2.32 µM.
